Measured values from the supplement of paper PMC10126150.
Values marked as one replicate rest on one cluster of the flow cell; about a third of the high ones do not repeat.

These sequences were tested on ATP (assay: switch fluorescence ratio, 500 uM ATP over buffer (Cy3 cluster intensity, sum of 5 cycles each) (fold (ratio)); higher = stronger signal-on switching upon ATP binding; sequences stand for … in TCGTCGGCAGCGTCAGATGTGTATAAGAGACAGTTTTTTTTTTTTTTTTTTTTTTTTT…TC). Settings: aptamer strand: ATP DNA aptamer (quencher-CACCTGGGGGAGTATTGCGGAGGAAGG + anchor), 100 nM annealed; ATP concentration: 500 uM; one replicate.
In short: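 The fluorescence ratio divides summed target-cycle Cy3 intensity by summed buffer-cycle Cy3 intensity for each cluster and is averaged per switch-domain sequence. Cy3-labelled switching-strand clusters on a modified Illumina MiSeq flow-cell were annealed to 100 nM quencher-labelled ATP aptamer, then imaged in selection buffer and again after 15 min with 500 uM ATP at 22 °C. Five such cycles were run, with NaOH stripping and re-annealing between them, and clusters outside 100-1000 RFU were excluded.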
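Also: ATP exposure 15 min at 22 °C before imaging.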

| Sequence | switch fluorescence ratio |
| --- | --- |
| GAAAGGG | 0.998 |
| GAAAGGTAT | 1 |
| GAAAGTACGC | 1.19 |
| GAAAGTCTC | 1.06 |
| GAAAGTGTAT | 0.976 |
| GAAAGTTCCG | 0.986 |
| GAAATAGCCA | 0.986 |
| GAAATATAAG | 1.01 |
| GAAATCTAGA | 0.972 |
| GAAATGCGCC | 1.05 |
| GAAATGCGGA | 1.04 |
| GAAATTATAG | 0.975 |
| GAAATTATGG | 1 |
| GAACAATTGG | 1.03 |
| GAACACCTTT | 1.05 |
| GAACATGAGA | 1.02 |
| GAACCAAACT | 1.11 |
| GAACCATGTG | 1.07 |
| GAACCGACGG | 1.08 |
| GAACCTATAA | 1.05 |
| GAACCTTTCC | 3.44 |
| GAACCTTTG | 1.17 |
| GAACGAGTCG | 1.04 |
| GAACGATGCT | 1.01 |
| GAACGCGGCA | 1.1 |
| GAACGCGGGT | 0.965 |

| Sequence | switch fluorescence ratio |
| --- | --- |
| GAACGCGGTC | 1.05 |
| GAACGCTTTT | 1.87 |
| GAACGGGCTA | 0.988 |
| GAACGTGGA | 0.99 |
| GAACTAACAT | 1.12 |
| GAACTAATAG | 0.996 |
| GAACTACAAT | 1.02 |
| GAACTACGGT | 0.992 |
| GAACTTAGTA | 1.03 |
| GAACTTTATT | 0.966 |
| GAAGAAAATG | 0.964 |
| GAAGAATGCA | 0.953 |
| GAAGACAGAC | 1.27 |
| GAAGACGCTT | 1.05 |
| GAAGACTATC | 1.05 |
| GAAGAGGGCG | 1.04 |
| GAAGATTGGA | 1.01 |
| GAAGCACAG | 1.15 |
| GAAGCCCTGC | 1.09 |
| GAAGCCGCAT | 1.46 |
| GAAGCCGGTT | 1 |
| GAAGCCTCTC | 1.05 |
| GAAGCGCGGA | 0.985 |
| GAAGCTATAG | 3.76 |
| GAAGCTATTG | 1.85 |
| GAAGCTATTT | 1.04 |

| Sequence | switch fluorescence ratio |
| --- | --- |
| GAAGGAACAT | 1.03 |
| GAAGGAAGT | 1.01 |
| GAAGGAATGG | 1.11 |
| GAAGGAATTG | 1.03 |
| GAAGGATTTA | 0.984 |
| GAAGGCGATT | 1.01 |
| GAAGGCGCTA | 0.99 |
| GAAGGCGGGT | 0.925 |
| GAAGGGCGCC | 0.998 |
| GAAGGGTTGT | 1.03 |
| GAAGGTAAAG | 1.04 |
| GAAGGTACGT | 0.975 |
| GAAGTCACGG | 1.1 |
| GAAGTCCGAT | 1.01 |
| GAAGTGAAGA | 0.989 |
| GAAGTTATCC | 1.06 |
| GAAGTTTCTC | 1.01 |
| GAAGTTTTA | 1.04 |
| GAATAAATGG | 0.98 |
| GAATAACCCG | 1.04 |
| GAATAAGATG | 1.02 |
| GAATAAGCAT | 1.28 |
| GAATAATCCC | 1.1 |
| GAATACCCCT | 1.1 |
| GAATACGACT | 1.08 |
| GAATAGCCCG | 0.964 |

| Sequence | switch fluorescence ratio |
| --- | --- |
| GAATAGGGCA | 0.971 |
| GAATAGGTTT | 0.963 |
| GAATATCTT | 0.962 |
| GAATATGGCC | 0.993 |
| GAATATTATT | 0.993 |
| GAATCCACGA | 1.05 |
| GAATCGCTGT | 0.969 |
| GAATCGTCAC | 1.04 |
| GAATCTCCGA | 0.983 |
| GAATCTCGGC | 1.06 |
| GAATGAAAAA | 1.02 |
| GAATGAAATG | 1 |
| GAATGACT | 1 |
| GAATGAGAAG | 1.01 |
| GAATGAGGTT | 1.03 |
| GAATGCAATG | 1.09 |
| GAATGCCGAT | 0.996 |
| GAATGCCGCG | 0.988 |
| GAATGGTTGA | 1.01 |
| GAATGTCAGG | 0.985 |
| GAATGTCTGT | 1.03 |
| GAATTAAAAG | 1.08 |
| GAATTATAGC | 1.15 |
| GAATTATGAC | 1.03 |
| GAATTCCGAT | 1 |
| GAATTCCTCG | 1.25 |

| Sequence | switch fluorescence ratio |
| --- | --- |
| GAATTGCAGT | 0.944 |
| GAATTGGAGG | 0.996 |
| GAATTGTAGG | 0.992 |
| GAATTTACCA | 1.08 |
| GACAAAAGCG | 1.04 |
| GACAAACAGT | 1.07 |
| GACAAAGGGG | 0.977 |
| GACAACTAGG | 0.984 |
| GACAACTCTG | 1 |
| GACAAGTAGT | 1.01 |
| GACAATATGT | 1.04 |
| GACAATCTTC | 1 |
| GACACAAATG | 1.02 |
| GACACAATTA | 1.18 |
| GACACCACCA | 1.4 |
| GACACCCGAT | 1.06 |
| GACACCGACT | 1.09 |
| GACACCTGTC | 1.18 |
| GACACGAGTA | 1.02 |
| GACACTAGAT | 1.04 |
| GACAGAAGAG | 0.951 |
| GACAGAGGGG | 0.998 |
| GACAGGTAG | 1.05 |
| GACAGTGGCA | 0.97 |
| GACATAATT | 1.01 |
| GACATAGTTG | 0.979 |

| Sequence | switch fluorescence ratio |
| --- | --- |
| GACATCAGGC | 0.99 |
| GACATCATAT | 1.05 |
| GACATTAGAT | 0.99 |
| GACATTCAG | 0.992 |
| GACATTGGA | 0.977 |
| GACATTTCTG | 1.09 |
| GACATTTG | 0.999 |
| GACCATATGT | 0.955 |
| GACCATCGTA | 1.02 |
| GACCATGGCG | 1.03 |
| GACCCTAAGT | 1.01 |
| GACCCTAATA | 1.05 |
| GACCCTGTCG | 0.991 |
| GACCCTTTAT | 0.967 |
| GACCGAATGA | 0.984 |
| GACCGAGGTA | 1.04 |
| GACCGGG | 0.951 |
| GACCGGTGCT | 1.01 |
| GACCGGTTGC | 1.01 |
| GACCTGGACC | 1.08 |
| GACCTGGATA | 1.03 |
| GACCTTCGT | 1.4 |
| GACGAAGGGT | 1 |
| GACGAGCAGC | 1.29 |
| GACGAGGCAT | 3.87 |
| GACGAGTCTG | 0.989 |

| Sequence | switch fluorescence ratio |
| --- | --- |
| GACGCAGCAG | 4.53 |
| GACGCATGCT | 2.79 |
| GACGCCCGAG | 1.02 |
| GACGCCGTTA | 0.984 |
| GACGCGGAAA | 1.62 |
| GACGCTGCGT | 1.01 |
| GACGGATCAT | 0.988 |
| GACGGCCAAT | 1.21 |
| GACGGCCGGC | 1.09 |
| GACGGCTAGG | 0.975 |
| GACGGCTAGT | 1.03 |
| GACGGCTTAT | 0.982 |
| GACGGCTTT | 0.96 |
| GACGGTATGG | 0.972 |
| GACGGTCAAC | 1.02 |
| GACGGTCTG | 0.955 |
| GACGGTTCAA | 1.02 |
| GACGTAAGGT | 4.7 |
| GACGTCCCGG | 0.97 |
| GACGTCTACT | 1.04 |
| GACGTTATCA | 1.02 |
| GACGTTGAAG | 0.969 |
| GACGTTGTGA | 0.97 |
| GACGTTGTTC | 1.36 |
| GACGTTTTCT | 1.14 |
| GACTAATCTG | 1.05 |

| Sequence | switch fluorescence ratio |
| --- | --- |
| GACTACGCCA | 3.41 |
| GACTACTGCT | 0.987 |
| GACTACTTGG | 1.05 |
| GACTAGGCTC | 1 |
| GACTCACATC | 1.28 |
| GACTCATT | 0.977 |
| GACTCGGCGT | 1.06 |
| GACTCTTCTG | 1.18 |
| GACTCTTGCT | 1.07 |
| GACTGAAGCC | 1.07 |
| GACTGAGCGT | 1 |
| GACTGAGGGC | 0.976 |
| GACTGGAAGC | 1.03 |
| GACTGGATTA | 1.03 |
| GACTGGTAGG | 0.979 |
| GACTGTCCAG | 1 |
| GACTTAGCCC | 1.02 |
| GACTTATGGT | 0.996 |
| GACTTCCGCC | 3.84 |
